PubChem BioAssay AID686970 (National Center for Advancing Translational Sciences (NCATS), 2013)
Screen size: about 360,000 compounds; about 6,000 (1.7%) were called active. The inconclusive results got no clear call from the source; some entries with a clear call stand among them for comparison. The call rests on the fitted dose curve; in most records, active means well fitted cell-killing curve with a large enough effect; inconclusive means small, poorly fitted or top-dose-only effect, or effect the other way; inactive means flat fitted curve, though single readings scatter. Potencies of inconclusive entries are left out as doubtful fits.

Test: qHTS for induction of synthetic lethality in tumor cells producing 2HG: qHTS for the HT-1080-NT fibrosarcoma cell line;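 further: NT is the 2HG producing partner of a matched IDH1 knockdown line; nearly all actives have a fitted effect of over 55% in size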;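 on activity, negative = less viability: 0% = DMSO-treated cells and -100% = media-only wells without cells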
Conditions: HT-1080-NT fibrosarcoma viability, CellTiter-Glo ATP luminescence, 48 h; activity, negative = less viability: at 46.1 µM (top of the series) unless noted
Summary of the method: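 HT-1080-NT fibrosarcoma cells (2HG-overproducing), 750 cells/well in RPMI with 5% FBS, dosed after 2 h and incubated 48 h at 37C. CellTiter-Glo luminescence normalized to DMSO and no-cell wells; concentration-response curves fitted and classed.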
Potency means the concentration at half of the fitted maximal effect; tags describe the fitted curve by direction and shape.

Question: With `O=C(Nc1cccc(C(F)(F)F)c1)N1CCC(c2nc(-c3ccc(F)cc3)no2)CC1` as the compound, how does the Potency read?
Answer: Its Potency is inconclusive [cytotoxic, single point].

Question: With `COc1ccc2c(c1)c(=O)c(Br)c(C)n2Cc1ccccc1` as the compound, how does the Potency read?
Answer: The Potency was inconclusive [cytotoxic, single point].

Question: With `CCN(CC)CCCN(C(=O)c1ccccc1F)c1nc(-c2ccc(OC)cc2)cs1` as the compound, how does the Potency read?
Answer: The Potency was active: 18.4 µM.

Question: For `COc1cc(-c2cnc3c(NC=O)cc(-c4cccnc4)cn23)cc(OC)c1OC`, which Potency is on record?
Answer: Its Potency is inconclusive [cytotoxic, partial curve, poor fit].

Question: With `COc1cc2[nH]c3c(=O)n4c(nc3c2cc1OC)SCCC4` as the compound, how does the Potency read?
Answer: Its Potency is active: 7.31 µM.

Question: With `CCn1c(=O)cc(C(=O)OC)sc1=Nc1ccc(F)c(F)c1` as the compound, how does the Potency read?
Answer: The Potency was inconclusive [cytotoxic, single point].

Question: Which Potency does the source give for `CC(C)(C)S(=O)N1Cc2cc(C(=O)NCc3ccc(Oc4ccccc4)cc3)nc(-c3cccc(-c4cc5ccccc5o4)c3)c2[C@@H]1CCO` (stereo partly drawn) here?
Answer: The Potency was active: 23.1 µM.

Question: With `O=C(O)Cc1sc(Nc2ccc(F)cc2)nc1-c1cccs1` as the compound, how does the “activity, negative = less viability” value read?
Answer: Its value is inactive: 3.86%.

Question: Which Potency does the source give for `O=Cc1c(Sc2ccccc2)nc2ccccn2c1=O` here?
Answer: Its Potency is inconclusive [cytotoxic, single point].

Question: Which Potency does the source give for `O=C(Nc1nnc(-c2ccccc2Cl)o1)c1ccco1` here?
Answer: Its Potency is active: 8.91 µM.

Question: Which Potency does the source give for `CCOc1cc(-c2c(C#N)c(N)nc3c2CCCC3C)ccc1O` (stereo not drawn) here?
Answer: Its Potency is inconclusive [cytotoxic, single point].

Question: Which “activity, negative = less viability” value does the source give for `CSc1ccc(/C=N/NC(=O)COc2ccc(Br)cc2Cl)cc1` here?
Answer: Its value is inactive: -0.192%.

Question: Which “activity, negative = less viability” value does the source give for `COc1ccc(/C(C)=N/Nc2nc3ccccc3n3cnnc23)cc1OC` here?
Answer: Its value is inactive: 2.77%.

Question: Which “activity, negative = less viability” value does the source give for `CCN(CC)S(=O)(=O)c1ccc(N2CCN(CCOc3ccc(OC)cc3)CC2)nc1` here?
Answer: Its value is inactive: -21%.

Question: Which Potency does the source give for `CCc1nc2ccc(C(=O)Nc3cccc(OC)c3)cn2c1N(C)Cc1ccc(OC)cc1` here?
Answer: Its Potency is inconclusive [cytotoxic, single point].

Question: For `Cn1nc(C(=O)NC(C)(C)C)c2ccccc21`, which “activity, negative = less viability” value is on record?
Answer: Its value is inactive: -0.316%.

Question: With `COc1cccc(-c2cnc3c(NC=O)cc(-c4ccccc4)cn23)c1` as the compound, how does the Potency read?
Answer: The Potency was active: 5.8 µM.

Question: For `CCCCNC(=O)C(=O)N/N=C/c1ccc(OCC(=O)Nc2cccc(OC)c2)c(OC)c1`, which Potency is on record?
Answer: Its Potency is inconclusive [cytotoxic, single point].

Question: With `COc1cccc(OC)c1OCCCOc1c(OC)cccc1OC` as the compound, how does the “activity, negative = less viability” value read?
Answer: Its value is inactive: -3.17%.

Question: Which “activity, negative = less viability” value does the source give for `O=C(Cc1cccs1)N(c1ccc(Br)cc1)C1C=CS(=O)(=O)C1` (stereo not drawn) here?
Answer: Its value is inactive: 13.1%.

Question: For `COc1cc(/C=C2\C(=O)ON=C2c2ccccc2)cc(Br)c1O`, which Potency is on record?
Answer: Its Potency is active: 16.4 µM.

Question: Which Potency does the source give for `CCOc1cc(/C=C2/C(=N)N3N=C(C)SC3=NC2=O)ccc1OS(=O)(=O)c1ccc(C)cc1` here?
Answer: Its Potency is inconclusive [cytotoxic, single point].

Question: With `Cc1cc(=O)oc2cc(OCC(=O)N/N=C/c3ccccc3[N+](=O)[O-])ccc12` as the compound, how does the Potency read?
Answer: Its Potency is inconclusive [cytotoxic, single point].

Question: Which Potency does the source give for `CN(Cc1ccccc1)C1=CC(=[N+]2CCCCC2)CC(C)(C)C1` here?
Answer: The Potency was inconclusive [cytotoxic, full curve].

Question: With `CC(C)(C)C(=O)NC(=S)NNC(=O)c1ccc(-c2ccccc2)cc1` as the compound, how does the Potency read?
Answer: Its Potency is active: 8.2 µM.

Question: For `N#CC1=C(N)N2C(=C(C#N)C1c1cccc(Br)c1)Nc1ccccc12` (stereo not drawn), which Potency is on record?
Answer: The Potency was inconclusive [cytotoxic, partial curve].

Question: Which “activity, negative = less viability” value does the source give for `COCCn1c(SC(C)C(=O)NCC2CCCO2)nc2sc3c(c2c1=O)CCC3` (stereo not drawn) here?
Answer: The value was inactive: 5.26%.

Question: With `CCOc1ccc(C(=O)COC(=O)c2c(-c3ccccc3)noc2C)cc1` as the compound, how does the Potency read?
Answer: The Potency was inconclusive [cytotoxic, partial curve].

Question: For `O=C(NCc1cccs1)C1CCCN1S(=O)(=O)c1ccccc1F` (stereo not drawn), which “activity, negative = less viability” value is on record?
Answer: The value was inactive: 2.27%.

Question: Which Potency does the source give for `O=C1NC(c2ccc3c(c2)OCO3)Nc2ccccc21` (stereo not drawn) here?
Answer: The Potency was inconclusive [cytotoxic, single point].

Question: Which “activity, negative = less viability” value does the source give for `CCC(=O)N1Cc2cc(C(=O)N(C)C)nc(-c3cccc(-c4cncnc4)c3)c2[C@@H]1CCO` here?
Answer: Its value is inactive: 7.59%.

Question: With `Cc1ccc2nc(-c3ccccn3)[nH]c2c1` as the compound, how does the Potency read?
Answer: The Potency was inconclusive [cytotoxic, single point].

Question: Which Potency does the source give for `OC(c1ccccc1)(c1nc(/C=C/c2ccccc2)cs1)C(F)(F)F` (stereo not drawn) here?
Answer: Its Potency is inconclusive [cytotoxic, single point].

Question: Which “activity, negative = less viability” value does the source give for `CCN(C[C@H]1N[C@@](C)(C(=O)OC)[C@H]2C(=O)N(Cc3ccccc3)C(=O)[C@@H]12)C(=O)Nc1ccccc1` here?
Answer: The value was inactive: 0.217%.

Question: For `CC(Cl)C(=O)NN=C(c1ccccc1)c1ccccc1` (stereo not drawn), which Potency is on record?
Answer: The Potency was inconclusive [cytotoxic, single point].

Question: For `CC(C)(C)OC(=O)CNC(=O)c1nc[nH]c1C(=O)NCC(=O)OC(C)(C)C`, which “activity, negative = less viability” value is on record?
Answer: The value was inactive: -2.19%.

Question: With `Cc1cc(C)n(Cc2ccc(NC(=O)c3ccc(COc4ccccc4Br)cc3)cc2)n1` as the compound, how does the Potency read?
Answer: The Potency was inconclusive [cytotoxic, single point].

Question: Which Potency does the source give for `O=C(CNc1ccc(F)cc1)N/N=C/c1c(O)ccc2ccccc12` here?
Answer: Its Potency is inconclusive [cytotoxic, partial curve].

Question: Which Potency does the source give for `Cc1nc(Nc2ccc(S(N)(=O)=O)cc2)sc1-c1ccccc1` here?
Answer: The Potency was inconclusive [cytotoxic, single point].

Question: Which “activity, negative = less viability” value does the source give for `Cc1nc2sc(C(c3ccc(Cl)cc3)N3CCN(c4ccccc4F)CC3)c(O)n2n1` (stereo not drawn) here?
Answer: Its value is inactive: -14.6%.

Question: Which “activity, negative = less viability” value does the source give for `COc1ccc(C(=O)N2CCCC(CCC(=O)N3CCN(c4ccccn4)CC3)C2)cc1` (stereo not drawn) here?
Answer: Its value is inactive: -3.26%.

Question: Which Potency does the source give for `O=C(CN1CCCC1)N/N=C/c1c(O)ccc2ccccc12` here?
Answer: The Potency was inconclusive [cytotoxic, single point].

Question: Which “activity, negative = less viability” value does the source give for `NC(=O)c1cc[n+](Cc2ccccc2Cl)cc1` here?
Answer: The value was inactive: 4.85%.

Question: For `Cc1oc(=O)c(NC(=O)c2cccc(Cl)c2)cc1C(=O)c1ccccc1`, which Potency is on record?
Answer: The Potency was inconclusive [cytotoxic, single point].

Question: For `C=CCc1ccc(OC(=O)NC2CCCCC2)c(OC)c1`, which “activity, negative = less viability” value is on record?
Answer: The value was inactive: 20.7%.

Question: For `CC(C)(O)C#Cc1ccc(N2C(c3ccsc3)=Cc3ccc(F)cc3C2c2c[nH]c3ccc(C#N)cc23)cc1` (stereo not drawn), which Potency is on record?
Answer: The Potency was inconclusive [cytotoxic, partial curve].

Question: With `CC1=C(C(=O)N(C)C)CC(CC(=O)NC2CC2)C(=O)N1Cc1ccccc1` (stereo not drawn) as the compound, how does the “activity, negative = less viability” value read?
Answer: The value was inactive: 1.66%.

Question: Which “activity, negative = less viability” value does the source give for `Cc1c(F)cccc1NC(=O)CCCCCC1NC(=O)NC1C` (stereo not drawn) here?
Answer: The value was inactive: 4.86%.
